Data taken from paper PMC9911399, “Two distinct binding modes provide the RNA-binding protein RbFox with extraordinary sequence specificity”.
Where a chain is given by its changes, count along the chain named. Some of the results follow.

T1: RBFOX1 RRM RbFoxmut (Fox-RRM*) (Homo sapiens, UniProt Q9NWB1 109-208, R118D;E147R;N151S;E152T)
T1 sequence: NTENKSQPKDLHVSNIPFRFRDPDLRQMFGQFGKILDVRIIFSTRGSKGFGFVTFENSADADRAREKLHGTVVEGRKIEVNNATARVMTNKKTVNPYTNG

B1: CAGAGGG (DNA:RNA)
RNA: GGGAGACCGGAAUUCAGAUUGUCCCAGAGGGUUAAAUCCCGUCGUAGCCACCA
DNA 1: CAATCTGAATTCCGGTCTCCC
DNA 2: TGGTGGCTACGACGGGATT
B2: UCAGAGG (DNA:RNA)
RNA: B1 RNA with C25U, A26C, G27A, A28G, G29A
DNA 1: CAATCTGAATTCCGGTCTCCC
DNA 2: TGGTGGCTACGACGGGATT
B3: GCUAGGG (DNA:RNA)
RNA: B1 RNA with C25G, A26C, G27U
DNA 1: CAATCTGAATTCCGGTCTCCC
DNA 2: TGGTGGCTACGACGGGATT
B4: UAGCGUG (DNA:RNA)
RNA: B1 RNA with C25U, A28C, G30U
DNA 1: CAATCTGAATTCCGGTCTCCC
DNA 2: TGGTGGCTACGACGGGATT
B5: AUCUGAA (DNA:RNA)
RNA: B1 RNA with C25A, A26U, G27C, A28U, G30A, G31A
DNA 1: CAATCTGAATTCCGGTCTCCC
DNA 2: TGGTGGCTACGACGGGATT
B6: UCGGCGA (DNA:RNA)
RNA: B1 RNA with C25U, A26C, A28G, G29C, G31A
DNA 1: CAATCTGAATTCCGGTCTCCC
DNA 2: TGGTGGCTACGACGGGATT
B7: GGCUAGG (DNA:RNA)
RNA: B1 RNA with C25G, A26G, G27C, A28U, G29A
DNA 1: CAATCTGAATTCCGGTCTCCC
DNA 2: TGGTGGCTACGACGGGATT
B8: GGCCAUG (ssRNA)
RNA: GGCCAUG
B9: UUUGCGC (DNA:RNA)
RNA: B1 RNA with C25U, A26U, G27U, A28G, G29C, G31C
DNA 1: CAATCTGAATTCCGGTCTCCC
DNA 2: TGGTGGCTACGACGGGATT
B10: ACCGGAG (DNA:RNA)
RNA: B1 RNA with C25A, A26C, G27C, A28G, G30A
DNA 1: CAATCTGAATTCCGGTCTCCC
DNA 2: TGGTGGCTACGACGGGATT
B11: UGUCUCA (DNA:RNA)
RNA: GGGAGACCGGAAUUCAGAUUGUCCUGUCUCAUUAAAUCCCGUCGUAGCCACCA
DNA 1: CAATCTGAATTCCGGTCTCCC
DNA 2: TGGTGGCTACGACGGGATT
B12: AUUACUC (DNA:RNA)
RNA: B1 RNA with C25A, A26U, G27U, G29C, G30U, G31C
DNA 1: CAATCTGAATTCCGGTCTCCC
DNA 2: TGGTGGCTACGACGGGATT
B13: CAAAGUG (DNA:RNA)
RNA: B1 RNA with G27A, G30U
DNA 1: CAATCTGAATTCCGGTCTCCC
DNA 2: TGGTGGCTACGACGGGATT
B14: UUAUCGC (DNA:RNA)
RNA: B1 RNA with C25U, A26U, G27A, A28U, G29C, G31C
DNA 1: CAATCTGAATTCCGGTCTCCC
DNA 2: TGGTGGCTACGACGGGATT
B15: AUAAUCU (DNA:RNA)
RNA: B11 RNA with U25A, G26U, U27A, C28A, A31U
DNA 1: CAATCTGAATTCCGGTCTCCC
DNA 2: TGGTGGCTACGACGGGATT
B16: UUGCAAU (DNA:RNA)
RNA: B11 RNA with G26U, U27G, U29A, C30A, A31U
DNA 1: CAATCTGAATTCCGGTCTCCC
DNA 2: TGGTGGCTACGACGGGATT
B17: UAUUCUU (DNA:RNA)
RNA: B11 RNA with G26A, C28U, U29C, C30U, A31U
DNA 1: CAATCTGAATTCCGGTCTCCC
DNA 2: TGGTGGCTACGACGGGATT
B18: GGUGGAG (DNA:RNA)
RNA: B1 RNA with C25G, A26G, G27U, A28G, G30A
DNA 1: CAATCTGAATTCCGGTCTCCC
DNA 2: TGGTGGCTACGACGGGATT
B19: CGGCACA (DNA:RNA)
RNA: B11 RNA with U25C, U27G, U29A
DNA 1: CAATCTGAATTCCGGTCTCCC
DNA 2: TGGTGGCTACGACGGGATT
B20: CCGCGGU (DNA:RNA)
RNA: B1 RNA with A26C, A28C, G31U
DNA 1: CAATCTGAATTCCGGTCTCCC
DNA 2: TGGTGGCTACGACGGGATT
B21: GUCGACC (DNA:RNA)
RNA: B11 RNA with U25G, G26U, U27C, C28G, U29A, A31C
DNA 1: CAATCTGAATTCCGGTCTCCC
DNA 2: TGGTGGCTACGACGGGATT
B22: GCGCCCC (DNA:RNA)
RNA: B11 RNA with U25G, G26C, U27G, U29C, A31C
DNA 1: CAATCTGAATTCCGGTCTCCC
DNA 2: TGGTGGCTACGACGGGATT
B23: ACACUUC (DNA:RNA)
RNA: B11 RNA with U25A, G26C, U27A, C30U, A31C
DNA 1: CAATCTGAATTCCGGTCTCCC
DNA 2: TGGTGGCTACGACGGGATT
B24: AGCUCAG (DNA:RNA)
RNA: B1 RNA with C25A, A26G, G27C, A28U, G29C, G30A
DNA 1: CAATCTGAATTCCGGTCTCCC
DNA 2: TGGTGGCTACGACGGGATT
B25: AGUGUAA (DNA:RNA)
RNA: B11 RNA with U25A, C28G, C30A
DNA 1: CAATCTGAATTCCGGTCTCCC
DNA 2: TGGTGGCTACGACGGGATT
B26: CACCCAG (DNA:RNA)
RNA: B1 RNA with G27C, A28C, G29C, G30A
DNA 1: CAATCTGAATTCCGGTCTCCC
DNA 2: TGGTGGCTACGACGGGATT
B27: GGCGAGA (DNA:RNA)
RNA: B11 RNA with U25G, U27C, C28G, U29A, C30G
DNA 1: CAATCTGAATTCCGGTCTCCC
DNA 2: TGGTGGCTACGACGGGATT
B28: UCUGUAC (DNA:RNA)
RNA: B11 RNA with G26C, C28G, C30A, A31C
DNA 1: CAATCTGAATTCCGGTCTCCC
DNA 2: TGGTGGCTACGACGGGATT
B29: AGUAGAU (DNA:RNA)
RNA: B1 RNA with C25A, A26G, G27U, G30A, G31U
DNA 1: CAATCTGAATTCCGGTCTCCC
DNA 2: TGGTGGCTACGACGGGATT
B30: GGCAGGG (DNA:RNA)
RNA: B1 RNA with C25G, A26G, G27C
DNA 1: CAATCTGAATTCCGGTCTCCC
DNA 2: TGGTGGCTACGACGGGATT
B31: AUUCUCA (DNA:RNA)
RNA: B11 RNA with U25A, G26U
DNA 1: CAATCTGAATTCCGGTCTCCC
DNA 2: TGGTGGCTACGACGGGATT

Assays:
[1] = target: T1, RBFOX1 RRM RbFoxmut (Fox-RRM*); assay: EMSA; HiTS-Eq, 1 nM pool, 10 min; buffer printed only for the single-RNA assays: 10 mM Tris pH 7.5, 150 mM NaCl, 3.4 mM EDTA, 0.001% NP-40, 30 C; details: tags: His6 N-terminal (pET28a); label: 5' 32P
In short: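 A pool of RNA with 7 randomized nucleotides, 5′-radiolabelled and with DNA-annealed flanks, was equilibrated at 1 nM for 10 min in 50 µL with purified RbFox RRM, wild type or mutant, across increasing protein concentrations. Free RNA was separated by 8% native PAGE, excised, reverse-transcribed, barcoded by PCR and sequenced. Relative association constants were obtained from read-count changes of each RNA species versus the control reaction and normalised to the cognate motif.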

[2] = target: T1, RBFOX1 RRM RbFoxmut (Fox-RRM*); assay: competition; 10 mM Tris pH 7.5, 150 mM NaCl, 3.4 mM EDTA, 0.001% NP-40, 30 C; details: tags: His6 N-terminal (pET28a)

Binder | binding signal [1] | binding signal [2] [nM]
B1 | 0.0898 KA relative to UGCAUGU | –
B2 | 0.0974 KA relative to UGCAUGU | –
B3 | 0.0709 KA relative to UGCAUGU | –
B4 | 0.159 KA relative to UGCAUGU | –
B5 | 0.0835 KA relative to UGCAUGU | –
B6 | 0.0721 KA relative to UGCAUGU | –
B7 | 0.0845 KA relative to UGCAUGU | –
B8 | – | 852
B9 | 0.15 KA relative to UGCAUGU | –
B10 | 0.0806 KA relative to UGCAUGU | –
B11 | 0.11 KA relative to UGCAUGU | –
B12 | 0.0782 KA relative to UGCAUGU | –
B13 | 0.11 KA relative to UGCAUGU | –
B14 | 0.0817 KA relative to UGCAUGU | –
B15 | 0.0765 KA relative to UGCAUGU | –
B16 | 0.0678 KA relative to UGCAUGU | –

Binder | binding signal [1] | binding signal [2] [nM]
B17 | 0.0993 KA relative to UGCAUGU | –
B18 | 0.0892 KA relative to UGCAUGU | –
B19 | 0.0649 KA relative to UGCAUGU | –
B20 | 0.112 KA relative to UGCAUGU | –
B21 | 0.0866 KA relative to UGCAUGU | –
B22 | 0.0673 KA relative to UGCAUGU | –
B23 | 0.0369 KA relative to UGCAUGU | –
B24 | 0.101 KA relative to UGCAUGU | –
B25 | 0.128 KA relative to UGCAUGU | –
B26 | 0.116 KA relative to UGCAUGU | –
B27 | 0.0893 KA relative to UGCAUGU | –
B28 | 0.0965 KA relative to UGCAUGU | –
B29 | 0.128 KA relative to UGCAUGU | –
B30 | 0.0625 KA relative to UGCAUGU | –
B31 | 0.108 KA relative to UGCAUGU | –
